Drawing on PMC6238599, this text covers binding for five substances.

Amino acid sequences for entries named in this document (tags omitted). A change or cut given only in a name is not applied to a line headed by its entry. Residues count along the entry.
UniProt Q9H7E2: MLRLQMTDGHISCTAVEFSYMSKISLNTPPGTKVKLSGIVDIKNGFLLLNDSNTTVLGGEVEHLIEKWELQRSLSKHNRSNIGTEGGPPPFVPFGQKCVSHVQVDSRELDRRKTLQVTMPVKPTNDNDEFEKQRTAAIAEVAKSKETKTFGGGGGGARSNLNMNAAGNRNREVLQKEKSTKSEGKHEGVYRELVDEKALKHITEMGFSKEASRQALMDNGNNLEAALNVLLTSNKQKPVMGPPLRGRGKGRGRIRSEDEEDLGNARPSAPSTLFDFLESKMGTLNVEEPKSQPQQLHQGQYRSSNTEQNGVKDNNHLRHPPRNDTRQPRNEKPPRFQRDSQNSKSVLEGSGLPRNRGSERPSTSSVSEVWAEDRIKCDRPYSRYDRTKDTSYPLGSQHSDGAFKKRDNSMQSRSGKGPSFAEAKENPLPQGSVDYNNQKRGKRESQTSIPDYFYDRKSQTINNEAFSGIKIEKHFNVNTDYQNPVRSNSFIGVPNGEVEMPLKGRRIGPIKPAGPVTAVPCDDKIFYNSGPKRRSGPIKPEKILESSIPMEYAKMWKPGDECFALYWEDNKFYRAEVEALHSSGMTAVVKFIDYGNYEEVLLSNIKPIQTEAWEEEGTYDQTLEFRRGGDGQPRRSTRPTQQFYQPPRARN
UniProt Q93074: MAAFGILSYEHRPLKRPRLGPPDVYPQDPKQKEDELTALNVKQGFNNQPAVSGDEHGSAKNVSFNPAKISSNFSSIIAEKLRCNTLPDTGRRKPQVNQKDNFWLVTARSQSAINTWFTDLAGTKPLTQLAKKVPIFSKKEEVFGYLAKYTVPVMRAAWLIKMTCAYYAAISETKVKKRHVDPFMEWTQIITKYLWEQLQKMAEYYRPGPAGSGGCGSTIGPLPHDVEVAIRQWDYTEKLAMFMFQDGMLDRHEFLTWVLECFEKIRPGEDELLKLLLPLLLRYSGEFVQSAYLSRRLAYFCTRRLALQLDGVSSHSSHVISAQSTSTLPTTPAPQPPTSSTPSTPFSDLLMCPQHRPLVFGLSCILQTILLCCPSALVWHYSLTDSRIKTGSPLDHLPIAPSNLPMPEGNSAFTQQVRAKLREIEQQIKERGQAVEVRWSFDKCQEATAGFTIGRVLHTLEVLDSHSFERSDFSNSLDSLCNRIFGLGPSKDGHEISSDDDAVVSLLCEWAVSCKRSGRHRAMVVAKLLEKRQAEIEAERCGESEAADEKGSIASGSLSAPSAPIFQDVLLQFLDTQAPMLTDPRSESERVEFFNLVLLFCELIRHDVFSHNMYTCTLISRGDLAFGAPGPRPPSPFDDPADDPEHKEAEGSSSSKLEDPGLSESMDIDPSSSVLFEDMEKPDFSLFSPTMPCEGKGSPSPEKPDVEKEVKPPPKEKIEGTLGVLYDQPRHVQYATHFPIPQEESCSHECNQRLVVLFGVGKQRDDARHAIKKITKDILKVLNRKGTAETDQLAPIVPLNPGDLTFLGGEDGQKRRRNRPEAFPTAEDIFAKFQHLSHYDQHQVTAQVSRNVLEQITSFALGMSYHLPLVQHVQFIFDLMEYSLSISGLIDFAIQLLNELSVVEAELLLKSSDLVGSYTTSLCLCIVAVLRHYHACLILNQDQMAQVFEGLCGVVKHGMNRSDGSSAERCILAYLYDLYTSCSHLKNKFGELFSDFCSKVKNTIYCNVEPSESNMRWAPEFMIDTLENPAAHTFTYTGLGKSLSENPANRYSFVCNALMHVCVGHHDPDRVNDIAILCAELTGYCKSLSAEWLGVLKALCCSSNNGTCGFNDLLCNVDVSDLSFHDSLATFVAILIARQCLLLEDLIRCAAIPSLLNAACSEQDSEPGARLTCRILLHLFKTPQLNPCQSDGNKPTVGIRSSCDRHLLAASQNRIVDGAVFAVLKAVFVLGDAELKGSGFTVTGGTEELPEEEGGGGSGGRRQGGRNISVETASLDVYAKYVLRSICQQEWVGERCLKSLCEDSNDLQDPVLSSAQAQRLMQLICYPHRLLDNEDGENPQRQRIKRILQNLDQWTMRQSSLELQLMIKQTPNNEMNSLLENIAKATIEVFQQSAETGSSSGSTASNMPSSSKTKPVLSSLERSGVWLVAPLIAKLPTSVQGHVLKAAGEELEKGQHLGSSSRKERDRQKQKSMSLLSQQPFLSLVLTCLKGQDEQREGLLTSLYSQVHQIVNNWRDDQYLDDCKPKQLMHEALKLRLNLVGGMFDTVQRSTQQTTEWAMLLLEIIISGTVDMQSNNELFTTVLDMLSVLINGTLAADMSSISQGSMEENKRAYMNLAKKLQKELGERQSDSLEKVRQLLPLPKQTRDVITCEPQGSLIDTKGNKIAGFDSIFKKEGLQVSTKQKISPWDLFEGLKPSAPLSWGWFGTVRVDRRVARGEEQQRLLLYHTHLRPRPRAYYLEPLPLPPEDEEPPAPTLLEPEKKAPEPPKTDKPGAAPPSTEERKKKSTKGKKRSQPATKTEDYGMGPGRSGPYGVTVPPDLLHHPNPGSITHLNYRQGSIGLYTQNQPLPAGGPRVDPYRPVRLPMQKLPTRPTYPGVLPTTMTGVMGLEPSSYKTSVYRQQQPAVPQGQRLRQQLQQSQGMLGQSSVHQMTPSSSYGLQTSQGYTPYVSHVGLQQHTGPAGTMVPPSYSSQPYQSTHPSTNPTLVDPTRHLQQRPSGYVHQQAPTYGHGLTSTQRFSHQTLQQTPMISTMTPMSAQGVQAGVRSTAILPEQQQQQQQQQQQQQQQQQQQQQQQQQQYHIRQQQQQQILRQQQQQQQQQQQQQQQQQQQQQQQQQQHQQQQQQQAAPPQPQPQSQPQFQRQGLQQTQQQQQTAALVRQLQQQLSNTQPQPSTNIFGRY
UniProt Q16637, residues 91-151: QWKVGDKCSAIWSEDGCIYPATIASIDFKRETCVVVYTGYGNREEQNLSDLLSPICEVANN

Assay [1] concerns the target TDRD3 (endogenous) (human (endogenous in MCF-7 and HEK293T)) (UniProt Q9H7E2). Description: co-IP; HEK293T cells transiently transfected with FLAG-MED12 WT or mutants; total cell lysates, IP of endogenous TDRD3 with anti-TDRD3, Western blot with anti-FLAG. For orientation: Immunoblotting shows a protein as a band on a membrane.
Assay [2] deals with T1, Biotinylated MED12 peptide, residues 1,891-1,907, asymmetrically dimethylated at Arg1899 (human) (UniProt Q93074).
T1 sequence (peptide, asymmetrically dimethylated Arg1899; biotin): SSYKTSVYRQQQPAVPQ
Description: pull-down; biotinylated MED12 peptides (20 ug) immobilised on streptavidin agarose beads; 4 ug GST-Tudor protein in mild lysis buffer (50 mM Tris-HCl pH 7.5, 150 mM NaCl, 0.1% Nonidet P-40, 5 mM EDTA, 5 mM EGTA, 15 mM MgCl2), 4°C, 2 h; Western blot with anti-GST; both purified.

Assay [3] has as its target TDRD3 (endogenous) (human (endogenous in MCF-7 and HEK293T)) (UniProt Q9H7E2). Description: co-IP; nuclear extracts of untreated MCF-7-Tet-on-shCARM1 cells (150 mM NaCl); IP with anti-TDRD3, Western blot with anti-MED12.
The target is the same in assay [4]. Description: condition: only cells with CARM1 knocked down (doxycycline, 1 ug/ml); co-IP; nuclear extracts of MCF-7-Tet-on-shCARM1 cells treated with doxycycline (1 ug/ml) to knock down CARM1; IP with anti-TDRD3, Western blot with anti-MED12.

Results are given in words; binding and its absence hold for the method and conditions named. For part of these data: Binding seen in cells or lysates may run through a third protein. Some entries that bind do so weakly or less than the wild type.

Turning to “FLAG-MED12 WT (full-length) (from UniProt Q93074-1 1-2177)”, in assay [1], the binding result was “binds”. Turning to “GST-Tudor (SMN) (from UniProt Q16637 91-151) (domain or fragment)”, the binding result in assay [2] is given as “binds weakly”. Regarding “FLAG-MED12-R1862K (from UniProt Q93074-1 1-2177)”, the binding entry in assay [1] is “binds”. With “MED12 (endogenous, human cells) (from UniProt Q93074-1 1-2177)”, the binding entry in assay [3] is given as “binds”; in assay [4], “no binding”. Regarding “GST-Tudor (TDRD3) (from UniProt Q9H7E2 555-615) (domain or fragment)”, the binding result in assay [2] is reported as “binds”.
